{
  "source": "patent US11180744B2",
  "about": "“Acinetobacter lysins” (priority 2014, dated 2021)",
  "tested_on": "A. baumannii clinical isolates",
  "assay": "Crude lysate clearing zones on A. baumannii soft agar plates",
  "details": "thirteen A. baumannii clinical isolates",
  "data": [
    {"molecule": "F307: phage lysin polypeptide, SEQ ID NO: 1, 16 kDa (protein, listed as Acinetobacter baumannii) VKTSNPGVDLIKGFEGLRLKAYDDGVGVWTIGFGTIKYPNGVRVKKGDTCTESQAEEYLRNDLVVFESAINRLVKVPLNQNQFDALASFTYNLGEGNLSISTLLKKLNAKDYKGAAAEFPKWNKAGGRVLAGLVKRRKAEMELFLK", "values": [
      {"measurement": "number of strains for which that lysin was the most efficient", "value": "seven"}
    ]}
  ]
}
